The campaign covered roughly 270,000 compounds. About 5,800 (2.1%) were called active. The shares of active, inactive and inconclusive entries below differ from those in the screen. Calls follow the shape of the dose curve; as a rule, active = well fitted inhibition curve with a large enough effect; inconclusive = small, poorly fitted or top-dose-only effect; inactive = flat fitted curve, though single readings scatter. A potency beside an inconclusive call is a rough fit, not a confirmed value.
target: Microtubule-associated protein tau (Homo sapiens) (UniProt P10636); test: qHTS for Inhibitors of Tau Fibril Formation, Thioflavin T Binding; conditions: recombinant tau K18 P301L (four-repeat tau fragment), heparin-induced fibrillization, ThT fluorescence; series mostly up to 57.4 µM; activity, negative = inhibition: at the top concentration; also: nearly all actives have a fitted effect of over 55% in size
How it was run: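 In this qHTS, human K18 P301L tau is incubated with compound and heparin for 6 hr at 37 C, and Thioflavin T fluorescence then reports fibril load.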
% is scaled to controls: 0 for no effect and ±100 for the full control effect; potency is read from the fitted curve at half-maximal effect; tags tell the direction and shape of the fitted curve.

Chain of UniProt P10636 (P10636 whole entry, looked up, the tested form may be a part): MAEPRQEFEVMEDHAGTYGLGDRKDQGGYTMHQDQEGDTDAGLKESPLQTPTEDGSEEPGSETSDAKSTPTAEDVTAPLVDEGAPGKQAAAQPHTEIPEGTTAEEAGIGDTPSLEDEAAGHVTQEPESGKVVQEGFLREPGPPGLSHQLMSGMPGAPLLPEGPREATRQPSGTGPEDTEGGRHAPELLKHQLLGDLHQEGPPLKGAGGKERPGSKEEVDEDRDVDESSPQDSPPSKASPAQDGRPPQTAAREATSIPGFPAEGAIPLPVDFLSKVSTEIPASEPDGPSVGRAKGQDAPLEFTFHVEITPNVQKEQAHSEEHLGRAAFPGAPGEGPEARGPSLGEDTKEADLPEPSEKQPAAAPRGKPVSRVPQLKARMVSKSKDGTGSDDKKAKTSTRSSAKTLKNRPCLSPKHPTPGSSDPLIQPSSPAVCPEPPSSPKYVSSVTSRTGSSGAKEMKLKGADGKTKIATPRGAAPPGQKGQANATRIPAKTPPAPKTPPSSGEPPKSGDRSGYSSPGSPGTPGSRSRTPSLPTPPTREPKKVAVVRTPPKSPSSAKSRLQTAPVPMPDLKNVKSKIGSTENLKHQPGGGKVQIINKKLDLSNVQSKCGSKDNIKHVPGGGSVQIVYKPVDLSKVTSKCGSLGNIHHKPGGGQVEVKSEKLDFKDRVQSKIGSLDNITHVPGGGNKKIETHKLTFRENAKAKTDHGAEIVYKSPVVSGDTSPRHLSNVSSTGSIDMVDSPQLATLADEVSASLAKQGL

Structure (SMILES)	Potency	activity, negative = inhibition
COc1ccccc1CCNC(=O)c1ccc2c(c1)c(C)c(C)n2C	inconclusive: 28.2 µM [inhibitor, partial curve]	
COc1ccc(OC)c(N(CC(=O)NCc2ccccc2)S(=O)(=O)c2ccccc2)c1		inactive: -3.89%
Cc1cc(C)n2nc(SCC(=O)c3cc(C)n(-c4cc(C)on4)c3C)nc2n1	inconclusive: 22.4 µM [inhibitor, partial curve]	
CSc1cccc(NC(=O)CSc2nc3ccccc3o2)c1		inactive: -6.33%
COc1ccc(CCNC(=O)Cn2c(=O)n(-c3ccc(F)cc3F)c(=O)c3sccc32)cc1OC		inactive: -8.32%
CCN(CC)S(=O)(=O)c1ccc2c(c1)N(CC(=O)Nc1c(C)cccc1C)C(=O)CO2		inactive: 10.8%
O=C(CSc1nnc(Cc2ccccc2)n1-c1cccc(Cl)c1)N1CCOCC1		inactive: -10.4%
O=[N+]([O-])c1ccc(Oc2cccc3cccnc23)c([N+](=O)[O-])c1	active: 8.91 µM	
CCc1ccc(CN(Cc2ccco2)C(=O)c2ccccc2Cl)cc1	inconclusive: 14.1 µM [inhibitor, single point]	
CCOc1ccc(/C=C/C2=CC(C)(C)NC(=S)N2)cc1	inconclusive: 12.6 µM [inhibitor, partial curve]	
Cc1ccc2c(Cl)c(C(=O)NCCc3ccccc3)sc2c1	inconclusive: 3.98 µM [inhibitor, full curve]	
CCOC(=O)CCn1nc(-c2ccc(C)cc2)c2ccccc2c1=O	inconclusive: 44.7 µM [inhibitor, single point]	
O=C(CSc1nc2ccccc2s1)NC1CCCc2ccccc21 (stereo not given)	inconclusive: 8.91 µM [inhibitor, full curve, poor fit]	
CCCCCC(=O)Nc1nc(C)c(-c2csc(Nc3cc(Cl)ccc3OC)n2)s1	inconclusive: 12.6 µM [inhibitor, partial curve]	
COc1ccc(CCNC(=O)c2nn(-c3ccc(C)cc3)c(=O)c3c2c2ccccc2n3C)cc1OC		inactive: 0.594%
Cc1cc(-c2ccccc2)n(-c2ccc(C(=O)N3CCN(c4ncccn4)CC3)cc2)n1	inconclusive: 12.6 µM [inhibitor, partial curve, poor fit]	
COc1ccccc1C(=O)OCc1ccc2sc(C)nc2c1	inconclusive: 31.6 µM [inhibitor, single point]	
O=C(CCn1c2c(c3ccccc31)CCCC2)NNC(=O)c1ccccc1[N+](=O)[O-]	inconclusive: 25.1 µM [inhibitor, partial curve]	
COc1ccc2cc(C(=O)Nc3ccc(O)cc3)sc(=O)c2c1OC	inconclusive: 28.2 µM [inhibitor, partial curve]	
O=C(Nc1ccc2[nH]c(=S)sc2c1)c1ccccc1		inactive: -16.3%
Cn1nc([N+](=O)[O-])c(C(C#N)c2nc3ccccc3n2C)c(Cl)c1=O (stereo not given)	active: 15.8 µM	
COc1ccc(-c2nc(C)c(CCNC(=O)C(=O)Nc3cccc(F)c3)s2)cc1OC	inconclusive: 2.51 µM [inhibitor, full curve]	
Cc1cc(C)c(C#N)c(SCc2nc3ccccc3c(=O)[nH]2)n1	inconclusive: 8.91 µM [inhibitor, partial curve]	
COC(=O)c1ccc(OCC(O)Cn2nnc3ccccc32)cc1 (stereo not given)	inconclusive: 11.2 µM [inhibitor, partial curve]	

Structure (SMILES)	Potency	activity, negative = inhibition
CCc1ccccc1NC(=O)c1cc(S(=O)(=O)N(CC)c2ccccc2)ccc1F		inactive: -11.5%
CCc1nnc(NC(=O)CN2CCN(c3nc(-c4ccccc4)cs3)CC2)s1		inactive: -15.4%
O=C(CSc1ccc2ccccc2n1)c1ccc2c(c1)OCO2	inconclusive: 3.98 µM [inhibitor, partial curve]	
Cc1ccc(-c2ccc(/C=N/N3C(=O)C4C5C=CC(C6CC56)C4C3=O)o2)c([N+](=O)[O-])c1 (stereo not given)	inconclusive: 20 µM [inhibitor, partial curve, poor fit]	
CCCCCCCCCCCCC/C=C\[C@@H](O)[C@H](CO)NC(C)=O	inconclusive: 25.1 µM [inhibitor, partial curve, poor fit]	
C=CCn1c(=O)c(C(=O)Nc2ccccc2S(N)(=O)=O)c(O)c2ccccc21		inactive: -15.7%
CC(C)c1ccc(/C=N/NC(=O)c2cccc(Cl)c2)cc1	inconclusive: 15.8 µM [inhibitor, partial curve]	
CCCCCCCC/C=C\CCCCCCCC(=O)N[C@@H](CO)Cc1ccc(O)cc1		inactive: -20.3%
Cc1ccc(S(=O)(=O)c2ccccc2)cc1S	active: 28.2 µM	
CCC(C)(C)n1nnnc1CN(Cc1cc2cc(OC)ccc2[nH]c1=O)C1CCCC1	inconclusive: 35.5 µM [inhibitor, single point]	
O=C(CSC1=NCCS1)N1CCN(c2ccc(Cl)cc2)CC1	inconclusive: 28.2 µM [inhibitor, partial curve]	
Cc1ccc(-c2c3c([nH]c(=S)c2C#N)CCCC3)o1	active: 22.4 µM	
O=C(/C(N=Nc1cccc([N+](=O)[O-])c1)=C(/O)c1ccc(Br)cc1)C(F)(F)F	active: 25.1 µM	
COc1ccc(NC(=O)CCN2CCN(c3cccc(Cl)c3)CC2)cc1	inconclusive: 3.98 µM [inhibitor, full curve]	
CCC(=O)c1cc(F)c(N2CCN(S(=O)(=O)c3ccccc3)CC2)cc1C		inactive: -19.1%
O=C(c1cccc(Cl)c1)N1CCN(C2CCCCCC2)CC1		inactive: -4.92%
C1CSC2(N1)C1CC3CC2CC(C1)C31NCCS1 (stereo not given)	inconclusive: 17.8 µM [inhibitor, partial curve]	
COc1ccc(OCC(=O)Nc2nccs2)cc1		inactive: -4.54%
Cc1cc(NC(=O)Nc2cccc3ccccc23)no1	inconclusive: 25.1 µM [inhibitor, partial curve, poor fit]	
Nc1cc(=O)[nH]c(SCC(=O)Nc2ccc([N+](=O)[O-])cc2)n1	inconclusive: 17.8 µM [inhibitor, partial curve, poor fit]	
CCOc1ccc2nc(N3CCN(C(=O)CS(=O)(=O)c4ccc(F)cc4)CC3)sc2c1	inconclusive: 1.41 µM [inhibitor, full curve]	
CCOC(=O)c1ccc(NC(=O)CSc2nnnn2CCCO)cc1	inconclusive: 11.2 µM [inhibitor, partial curve, poor fit]	
CCOc1cc(CNc2ccc(N(C)C)cc2)cc(Br)c1OCC(=O)NC(C)(C)C	active: 7.94 µM	
O=C(COc1cc(=O)n2c(n1)SCCC2)c1ccccc1		inactive: -11.7%

Structure (SMILES)	Potency	activity, negative = inhibition
CCOC(=O)c1ccc(-n2c(CN3CCN(CC)CC3)nc3ccc([N+](=O)[O-])cc3c2=O)cc1	inconclusive: 12.6 µM [inhibitor, partial curve]	
CC1Cc2ccccc2N1C(=O)c1cc2c(=O)n3ccccc3nc2n1C (stereo not given)	inconclusive: 28.2 µM [inhibitor, partial curve, poor fit]	
CCn1c(C(=O)N2CCC(C(=O)N3CCN(c4cccc(C)c4C)CC3)CC2)cc2sccc21	inconclusive: 22.4 µM [inhibitor, partial curve]	
Cc1cccc(C)c1NC(=O)Cn1nnc(-c2ccc(N3CCOCC3)cc2)n1	inconclusive: 1.78 µM [inhibitor, partial curve]	
COc1ccc(S(=O)(=O)n2oc(=O)cc2-c2ccccc2)cc1OC	inconclusive: 22.4 µM [inhibitor, partial curve]	
O=C(Cn1c(-c2cscn2)nc2ccccc21)Nc1ccc2ccccc2c1	inconclusive: 39.8 µM [inhibitor, partial curve]	
Cc1cc(N2CCN(c3ccccc3Cl)CC2)n2cc(-c3ccccc3)nc2n1	inconclusive: 35.5 µM [inhibitor, single point]	
Cc1cccc(-c2nc(SCCCOc3ccccc3Cl)n3[nH]c(=O)cc3n2)c1	inconclusive: 14.1 µM [inhibitor, partial curve]	
N#Cc1c(NC(=S)NC(=O)c2ccccc2)sc2c1CCCC2		inactive: -15.7%
CC(=O)N1N=C(c2ccc3ccccc3c2)OC12CCCC2	inconclusive: 12.6 µM [inhibitor, partial curve]	
CCn1c(SCc2nc3ccccc3s2)nnc1-c1ccccc1	inconclusive: 20 µM [inhibitor, partial curve]	
COc1cc([C@H](Cc2ccccc2)NC(C)=O)oc(=O)c1	inconclusive: 0.891 µM [inhibitor, single point]	
COc1ccccc1NC(=S)NNC(=O)c1c(Cl)c(C)nn1C	inconclusive: 14.1 µM [inhibitor, partial curve]	
COc1ccc(NC(=O)COC(=O)c2ccc(Cl)c(S(N)(=O)=O)c2)c([N+](=O)[O-])c1	inconclusive: 11.2 µM [inhibitor, partial curve]	
O=[N+]([O-])c1cccc(/C([O-])=C(/C(=S)Nc2cccc3ccccc23)[n+]2ccccc2)c1		inactive: 11.7%
OC(c1cccs1)c1nccc2ccccc12 (stereo not given)	inconclusive: 44.7 µM [inhibitor, single point]	
COc1cc(/C=N/NC(=O)c2sc3ccccc3c2Cl)ccc1OC(=O)c1ccc([N+](=O)[O-])cc1	active: 1.26 µM	
CCOc1ccc(C(=O)NCC(c2ccco2)S(=O)(=O)c2ccc(C)cc2)cc1 (stereo not given)		inactive: -14%
COc1ccc(Cl)cc1NC(=O)N1CCC(CN2CCc3ccccc3C2)CC1		inactive: -4.52%
COc1cccc(CNC(=O)CSc2ccc(-c3sc(-c4ccccc4)nc3C)nn2)c1	inconclusive: 17.8 µM [inhibitor, partial curve]	
NC(=O)CSc1nc2c(oc3ccccc32)c(=O)n1-c1ccccc1F		inactive: 7.34%
CCS(=O)(=O)c1ccc(C(=O)Nc2ccccc2)c(Cl)c1Cl	inconclusive: 17.8 µM [inhibitor, partial curve, poor fit]	

Reference: PubChem BioAssay AID1460 (National Center for Advancing Translational Sciences (NCATS), 2008)
